# The supplement of paper PMC12217912
# This is one part of the list. The full chains were built here from the parent and the listed change. Values near 0.05 are background.
# B1: TEV protease; numbered along this chain (parent)
# chain: MGESLFKGPRDYNPISSSICHLTNESDGHTTSLYGIGFGPFIITNKHLFRRNNGTLVVQSLHGVFKVKDTTTLQQHLVDGRDMIIIRMPKDFPPFPQKLKFREPQREERICLVTTNFQTKSMSSMVSDTSCTFPSGDGIFWKHWIQTKDGQCGSPLVSTRDGFIVGIHSASNFTNTNNYFTSVPKNFMELLTNQEAQQWVSGWRLNADSVLWGGHKVFMVKPEEPFQPVKEATQL
# Variants of: B1
# Experiment: raw area under fraction-flipped curve 0-4 h after induction (AUC4h, not background-subtracted), DNA-recorder readout of cleavage of the substrate (dimensionless); higher = more cleavage of the substrate by the protease variant
# Settings: temperature: 34 °C; time window: 0-4 h after rhamnose induction
# 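Also: Bxb1 expression induced with 0.2% (w/v) L-rhamnose at OD600 near 0.5, cultures sampled hourly, flipped fraction per protease–substrate barcode pair counted by paired-end Illumina sequencing.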
Variant,area with substrate ENLYFQC,area with substrate ENLYFQF,area with substrate ENLYFQG,area with substrate ENLYFQH,area with substrate ENLYFQI,area with substrate ENLYFQK,area with substrate ENLYFQL,area with substrate ENLYFQM,area with substrate ENLYFQP,area with substrate ENLYFQR,area with substrate ENLYFQS,area with substrate ENLYFQT,area with substrate ENLYFQV,area with substrate ENLYFQD,area with substrate ENLYFQE,area with substrate ENLYFQW,area with substrate ENLYFQN,area with substrate ENLYFQQ,area with substrate ENLYFQY
MGESLFKGPRDYNPISSSICHLTNESDGHTTSLYGIGFGPFIITNKHLFRRNNGTLVVQSLHGVFKVKDTTTLQQHLVDGRDTIIIRMPKDFPPFPQKLKFREPQREERICLVTTNFQTKSMSSMVSDTSCTFPSGDGIFWKHWIQTKDGQCGSPLVSTRDGFIVGIHSASNFTNTNNYFTSVPKNFMELLTNQEAQQWVSGWRLNADSVLWGGHKVFMVKPEEPFQPVKEATQL [M83T],0.0819,0.0563,0.0756,0.0705,0.0534,0.0784,0.0635,0.0623,0.0453,0.0447,0.0744,0.0587,0.0575,,,,,,
MGESLFKGPRDYNPISSSICHLTNESDGHTTSLYGDGFGPFIITNKHLFRRNNGTLVVQSLHGVFKVKDTTTLQQHLVDGRDMIIIRMPKDFPPFPQKLKFREPQREERICLVTTNFQTKSMSSMVSDTSCTFPSGDGIFWKHWIQTKDGQCGSPLVSTRDGFIVGIHSASNFTNTNNYFTSVPKNFMELLTNQEAQQWVSGWRLNADSVLWGGHKVFMVKPEEPFQPVKEATQL [I36D],0.043,,,0.0594,0.0468,0.051,0.0328,0.0461,0.0379,0.0419,0.0415,0.0459,,0.0355,0.0364,0.0483,,,
MGESLFKGPRDYNPISSSICHLTNESKGHTTSLYGIGFGPFIITNKHLFRRNNGTLVVQSLHGVFKVKDTTTLQQHLVDGRDMIIIRMPKDFPPFPQKLKFREPQREERICLVTTNFQTKSMSSMVSDTSCTFPSGDGIFWKHWIQTKDGQCGSPLVSTRDGFIVGIHSASNFTNTNNYFTSVPKNFMELLTNQEAQQWVSGWRLNADSVLWGGHKVFMVKPEEPFQPVKEATQL [D27K],0.0855,0.068,,,0.0589,0.0682,0.0536,,,0.0564,0.0877,,0.0587,0.0793,0.07,0.093,0.0801,0.0661,0.0846
MGESLFKGPRDYNPISSSICHLTNESDGHTTSLYGIGFGPFIITNKHLFRRNNGTLVVQSLHGVFKVKDTTDLQQHLVDGRDMIIIRMPKDFPPFPQKLKFREPQREERICLVTTNFQTKSMSSMVSDTSCTFPSGDGIFWKHWIQTKDGQCGSPLVSTRDGFIVGIHSASNFTNTNNYFTSVPKNFMELLTNQEAQQWVSGWRLNADSVLWGGHKVFMVKPEEPFQPVKEATQL [T72D],0.107,0.0673,0.104,0.11,0.0615,0.07,,0.0887,,0.0595,0.0931,0.0737,0.054,0.0762,,0.0668,,,0.067
MGESLFKGPRDYNPISSSICHLTNESDGHTTSLYGIGFGPFIITNKHLFRRNNGTLVVQSLHGVFKVKLTTTLQQHLVDGRDMIIIRMPKDFPPFPQKLKFREPQREERICLVTTNFQTKSMSSMVSDTSCTFPSGDGIFWKHWIQTKDGQCGSPLVSTRDGFIVGIHSASNFTNTNNYFTSVPKNFMELLTNQEAQQWVSGWRLNADSVLWGGHKVFMVKPEEPFQPVKEATQL [D69L],0.0879,0.106,0.074,0.055,,0.0535,0.0574,,0.0675,0.0637,0.0765,0.064,0.0596,,0.052,0.0585,0.0695,0.0573,0.0738
MGESLFKGPRDYNPISSSICHLTNESDGHTTSPYGIGFGPFIITNKHLFRRNNGTLVVQSLHGVFKVKDTTTLQQHLVDGRDMIIIRMPKDFPPFPQKLKFREPQREERICLVTTNFQTKSMSSMVSDTSCTFPSGDGIFWKHWIQTKDGQCGSPLVSTRDGFIVGIHSASNFTNTNNYFTSVPKNFMELLTNQEAQQWVSGWRLNADSVLWGGHKVFMVKPEEPFQPVKEATQL [L33P],0.0517,,0.0481,,0.0484,,0.0464,0.0464,0.0454,0.0443,0.0485,0.0502,,,0.0516,0.0494,0.0443,,0.0546
MGESLFKGPRDYNPISSSICHLTNESDGHTTSLYGIGFGPFIITNKHLFRRNNGTLVVQSLHGVFKVKDTTTLQQHSVDGRDMIIIRMPKDFPPFPQKLKFREPQREERICLVTTNFQTKSMSSMVSDTSCTFPSGDGIFWKHWIQTKDGQCGSPLVSTRDGFIVGIHSASNFTNTNNYFTSVPKNFMELLTNQEAQQWVSGWRLNADSVLWGGHKVFMVKPEEPFQPVKEATQL [L77S],0.0739,0.0564,0.0796,,0.0524,0.0502,,,0.0445,0.0625,0.0716,0.0573,0.0671,0.0663,,0.0561,0.101,,
MGESLFKGPRDYNPISSSICHLTNESDGHTTSLYGIGFGPFIITNKHLFRRNNGTLVVQSLHGVFKVTDTTTLQQHLVDGRDMIIIRMPKDFPPFPQKLKFREPQREERICLVTTNFQTKSMSSMVSDTSCTFPSGDGIFWKHWIQTKDGQCGSPLVSTRDGFIVGIHSASNFTNTNNYFTSVPKNFMELLTNQEAQQWVSGWRLNADSVLWGGHKVFMVKPEEPFQPVKEATQL [K68T],0.138,,0.1,0.0863,0.0551,0.0479,,0.0905,,0.0762,0.103,0.0561,0.0571,0.0798,,0.0549,,,0.0836
MGESLFKGPRDYNPISSSICHLTNESDGHFTSLYGIGFGPFIITNKHLFRRNNGTLVVQSLHGVFKVKDTTTLQQHLVDGRDMIIIRMPKDFPPFPQKLKFREPQREERICLVTTNFQTKSMSSMVSDTSCTFPSGDGIFWKHWIQTKDGQCGSPLVSTRDGFIVGIHSASNFTNTNNYFTSVPKNFMELLTNQEAQQWVSGWRLNADSVLWGGHKVFMVKPEEPFQPVKEATQL [T30F],0.112,0.0802,0.113,,0.0592,0.0618,0.061,0.082,0.0533,0.0692,0.102,0.0672,0.0646,0.073,,0.0604,0.0746,0.0609,0.0836
